Where a name gives a salt, the structure may show the parent alone. The full ranking holds about 2,800 compounds; the median of “cell viability relative to vehicle” is about 1.1, and the lowest 2% start at about 0.19. This is one part of the list.

The subject of the test is NCI-H2228 parental. The test is described as follows: cell viability relative to vehicle (fraction of vehicle); NCI-H2228 is an ALK-positive lung cancer line and DTP means drug-tolerant persister; higher = less growth inhibition. To be noted: 100 nM; treatment time 6 days. An outline of the steps:
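Parental NCI-H2228 cells and drug-tolerant persister cells (made with 1000 nM of a targeted drug for 13 days) were seeded in 384-well plates. The next day, the 3114-agent TargetMol anti-cancer compound library was added at 100 nM, with DMSO as vehicle. After 6 days, ATP was read with the CellTiter-Glo 3D Cell Viability Assay. Each value is cell viability relative to vehicle-treated cells.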
Regarding `O=C(O)P(=O)(O)O` [Foscarnet sodium], the cell viability stood at 1.

With `COc1cc2c(=O)c(-c3ccc(O)cc3)coc2cc1O[C@@H]1O[C@H](CO)[C@@H](O)[C@H](O)[C@H]1O` [Glycitin], the cell viability was 1.17.

As for `CC(C)(C)NS(=O)(=O)c1cncc(-c2cc(F)c3nc(N)nn3c2)c1`, the cell viability is 1.07.

As for `N#CCC(C1CCCC1)n1cc(-c2ncnc3[nH]ccc23)cn1` (stereo not given), the cell viability turned out to be 1.02.

For the compound `CC1=C(C(=O)Nc2cc3cn[nH]c3cc2F)C(c2ccc(Cl)cc2F)N=C(c2ccnc(Cl)c2)N1` (stereo not given), the cell viability stood at 0.928.

With `Cc1ccc2c(Nc3ccc(Cl)cc3)nccc2c1Nc1ncccc1-c1ncnc2nc[nH]c12` [B-Raf inhibitor 1 dihydrochloride], the cell viability stood at 1.05.

Consider `CC(C)(C)c1ccc(S(=O)(=O)Nc2ccc(-n3ccnc3)cc2)cc1`, for which the cell viability amounted to 1.08.

For the compound `Cc1cc(-c2nc(-c3ccc(OC(F)(F)F)cc3)no2)nn1Cc1ccnc(N2CCN(C3CC3)CC2)c1`, the cell viability stood at 0.73.

For `COC(=O)[C@H]1[C@H]2C[C@@H]3c4[nH]c5cc(OC)ccc5c4CCN3C[C@H]2C[C@@H](OC(=O)c2cc(OC)c(OC)c(OC)c2)[C@@H]1OC` [Reserpine], the cell viability was 0.905.

For `COc1cc2c(cc1OC)-c1cc3ccc(OC)c(OC)c3c[n+]1CC2` [Palmatine], the cell viability stood at 1.12.

Turning to `CNC(=C[N+](=O)[O-])NCCSCc1ccc(CN(C)C)o1` [Ranitidine Hydrochloride], the cell viability came out at 1.28.

Consider `C=CCc1ccc(O)c(-c2ccc(O)c(CC=C)c2)c1` [Honokiol], for which the cell viability worked out at 0.995.

As to `CC(C)C[C@H](NC(=O)[C@@H](O)[C@H](N)Cc1ccccc1)C(=O)O` [Bestatin hydrochloride], the cell viability is 1.16.

On to `CC(C)C[C@H](NC(=O)[C@@H](O)[C@H](N)Cc1ccccc1)C(=O)O` [Ubenimex], for which the cell viability was 1.08.

`O=c1c(-c2ccc(O)cc2)coc2cc(O)cc(O)c12` [Genistein]: the cell viability came to 1.25.

On to `Cc1cc(N2CCOCC2)ccc1Nc1nc(NC2CCCCC2)c2[nH]cnc2n1`, for which the cell viability stood at 1.29.

Turning to `Cc1c(-c2ccc(N3CCc4cccc(C(=O)Nc5nc6ccccc6s5)c4C3)nc2C(=O)O)cnn1CC12CC3CC(CC(C3)C1)C2`, the cell viability came to 0.797.

Turning to `O=C(NOCCO)c1cc(CN2OCCCC2=O)c(F)c(F)c1Nc1ccc(I)cc1F`, the cell viability was 0.779.

`CSc1cccc(Nc2ncc3cc(-c4c(Cl)cccc4Cl)c(=O)n(C)c3n2)c1`: the cell viability was found to be 0.541.

For the compound `CCOc1ccn(-c2ccc(F)cc2)c(=O)c1C(=O)Nc1ccc(Oc2ccnc(N)c2Cl)c(F)c1`, the cell viability was determined as 1.03.

Regarding `CCC(=O)NS(=O)(=O)c1ccc(-c2c(-c3ccccc3)noc2C)cc1` [Parecoxib], the cell viability was 0.95.

With `Cc1nc(Nc2n[nH]c3c2CN(C(=O)N[C@H](CN(C)C)c2ccccc2)C3(C)C)c2sccc2n1`, the cell viability came out at 0.368.

Consider `CNC[C@H](O)c1cccc(O)c1` [Phenylephrine hydrochloride], for which the cell viability is 1.05.

As for `CC(C)C[C@H](NC(=O)CNC(=O)c1cc(Cl)ccc1Cl)B(O)O` [Ixazomib], the cell viability was 0.121.

Take `N#Cc1ccc2ncnc(NC3CCC(N4CCOCC4)CC3)c2c1` (stereo not given): the cell viability stood at 1.16.

With `O=C(O[C@@H]1Cc2c(O)cc(O)cc2O[C@@H]1c1cc(O)c(O)c(O)c1)c1cc(O)c(O)c(O)c1` [(-)-Epigallocatechin Gallate], the cell viability worked out at 0.93.

Regarding `C[C@@H]1O[C@@H](O[C@@H]2[C@@H](O)[C@H](OCCc3ccc(O)c(O)c3)O[C@H](CO)[C@H]2OC(=O)/C=C/c2ccc(O)c(O)c2)[C@H](O)[C@H](O)[C@H]1O` [Verbascoside], the cell viability turned out to be 1.03.

Take `COC(=O)c1ccc2c(c1)NC(=O)/C2=C(\Nc1ccc(N(C)C(=O)CN2CCN(C)CC2)cc1)c1ccccc1` [Nintedanib]: the cell viability came to 0.958.

As to `CCS(=O)(=O)c1ccc2oc(-c3ccc4ccccc4c3)nc2c1` [Ezutromid], the cell viability was determined as 1.05.

Turning to `COc1ccc(/C=C\c2cc(OC)c(OC)c(OC)c2)cc1OP(=O)(O)O` [Fosbretabulin Disodium], the cell viability was found to be 0.329.

As for `O=C(NCCS(=O)(=O)c1ccc(C(F)(F)F)cn1)c1ccc(Cl)cc1`, the cell viability came out at 1.07.

As to `CC(C)CC(=O)Nc1n[nH]c2c1CN(C(=O)C1CCN(C)CC1)C2(C)C`, the cell viability worked out at 0.977.

Consider `COc1ccc(C=O)c(O)c1` [4-Methoxysalicylaldehyde], for which the cell viability amounted to 0.973.

Consider `Nc1nc(F)nc2c1ncn2[C@@H]1O[C@H](CO)[C@@H](O)[C@@H]1O` [Fludarabine], for which the cell viability was 1.12.

Consider `CC(=O)c1cnc2ccc(-c3cc(Cl)c(O)c(Cl)c3)nc2c1N[C@H]1CC[C@H](CN(C)C)CC1`, for which the cell viability amounted to 0.657.

For `CC(=O)N1c2ccc(-c3ccc(C(=O)O)cc3)cc2[C@H](Nc2ccc(Cl)cc2)C[C@@H]1C`, the cell viability was found to be 0.864.

On to `O=C1CN2Cc3c(ccc(Cl)c3Cl)N=C2N1` [Anagrelide], for which the cell viability is 1.06.

In the case of `COCCN1CCN(Cc2ccc(-c3n[nH]c4c3C(=O)c3c(NC(=O)NN5CCOCC5)cccc3-4)cc2)CC1`, the cell viability was found to be 0.253.

Regarding `CN(C)Cc1c(C(=O)NCCOc2ccc(C(=O)NO)cc2)oc2ccccc12`, the cell viability stood at 0.758.

As to `NCCCNc1ccc(Nc2nccc(Nc3cc(C4CC4)[nH]n3)n2)cc1`, the cell viability was found to be 0.735.

Consider `CN1CC[C@H](c2c(O)cc(O)c3c(=O)cc(-c4ccccc4Cl)oc23)[C@H](O)C1` [Flavopiridol hydrochloride], for which the cell viability worked out at 0.497.

For `COc1ccc(-c2cc(=O)c3c(O)cc(O)cc3o2)cc1O` [Diosmetin], the cell viability turned out to be 1.26.

`Nc1nc(Cl)nc2c1ncn2[C@@H]1O[C@H](CO)[C@@H](O)[C@@H]1F` [Clofarabine]: the cell viability was 0.151.

Consider `Cc1ccc(Nc2nnc(Cc3ccncc3)c3ccccc23)cc1Br`, for which the cell viability was found to be 0.942.

`CCCCCCCCCCCCCCOc1ccc(C(=O)O)o1`: the cell viability worked out at 1.05.

Consider `C[C@@H](N)[C@H]1CC[C@H](C(=O)Nc2ccncc2)CC1`, for which the cell viability turned out to be 1.3.

As to `c1cnc2cc3c(cc2n1)[C@@H]1CNC[C@H]3C1` [Varenicline Tartrate], the cell viability was 1.19.

Consider `NNC(=O)c1ccccn1` [2-Picolinyl hydrazide], for which the cell viability was 0.879.

On to `CCCCCN(CCCOC)C(=O)C(CCC(=O)O)NC(=O)c1ccc(Cl)c(Cl)c1` (stereo not given) [Loxiglumide], for which the cell viability was found to be 0.97.

In the case of `O=c1cc(-c2ccc(O)cc2)oc2cc(O)cc(O)c12` [Apigenin], the cell viability is 1.22.

For `CO[C@H]1/C=C/O[C@@]2(C)Oc3c(C)c(O)c4c(c3C2=O)C2=NC3(CCN(CC(C)C)CC3)NC2=C(NC(=O)/C(C)=C\C=C\[C@H](C)[C@H](O)[C@@H](C)[C@@H](O)[C@@H](C)[C@H](OC(C)=O)[C@@H]1C)C4=O` [Rifabutin], the cell viability was determined as 0.96.

Consider `CNc1nc(Nc2cnn([C@H]3CCN(C4COC4)C[C@@H]3F)c2Cl)ncc1C(F)(F)F`, for which the cell viability came to 1.06.

With `NCCC[C@H](N)C(=O)O` [L-Ornithine], the cell viability came out at 1.12.

Consider `COc1cc(C(N)=O)ccc1NC(=O)[C@@H]1N[C@@H](CC(C)(C)C)[C@@]2(C(=O)Nc3cc(Cl)ccc32)[C@H]1c1cccc(Cl)c1F`, for which the cell viability is 1.2.

Consider `CC(C)n1nc(-c2cc3cc(O)ccc3[nH]2)c2c(N)ncnc21` [Torkinib], for which the cell viability was determined as 0.747.

In the case of `Cc1ccc(S(=O)(=O)Nc2cc(C(F)(F)F)ccc2C(=O)Nc2nc(-c3ccccc3)cs2)cc1`, the cell viability stood at 0.899.

For the compound `CCOC(=O)c1cnn(-c2ccccc2)c1NC(=O)c1cc2nc(-c3ccco3)cc(C(F)(F)Cl)n2n1` [Mycro-3], the cell viability is 1.04.

Regarding `CC(=O)N[C@H]1CSSC[C@@H](C(N)=O)NC(=O)[C@H](C(C)C)NC(=O)[C@H](C)NC(=O)[C@H](Cc2c[nH]cn2)NC1=O` [Exherin trifluoroacetate], the cell viability was found to be 1.15.

For `O=C(CCCCCCNC(=O)c1cnc(N(c2ccccc2)c2ccccc2)nc1)NO` [Rocilinostat], the cell viability came out at 1.01.

Consider `O=c1ncccn1[C@@H]1O[C@H](CO)[C@@H](O)[C@H]1O` [Zebularine], for which the cell viability was 1.33.

In the case of `COc1cccc(CNC(=O)Nc2nc(-c3ccncc3)cs2)c1`, the cell viability came out at 1.04.

As to `CCOC(=O)c1ccc(OC(=O)CCCCCNC(=N)N)cc1` [Gabexate mesylate], the cell viability came to 1.15.

Turning to `O=c1[nH]cnc2c1ncn2[C@H]1C[C@H](O)[C@@H](CO)O1` [2'-Deoxyinosine], the cell viability amounted to 0.912.

With `Cc1cc(C#N)c(N)s1` [2-Amino-5-methyl-3-thiophenecarbonitrile], the cell viability was 0.811.

For `C[C@@H]1CN(C(=O)c2ccc(NC(=O)c3cc(O[C@H](C)c4c(Cl)ccc(F)c4Cl)c(N)nn3)cc2)C[C@H](C)N1` [Ensartinib], the cell viability turned out to be 0.653.

For the compound `COc1ccc(C(=O)CC2(O)C(=O)Nc3c(Cl)ccc(Cl)c32)cc1` (stereo not given), the cell viability was determined as 1.12.

As for `CC(C)(C)Cn1c(N)nc2ccc(-c3[nH]c(C(C)(C)C)nc3-c3ccc(F)cc3)nc21` [Ralimetinib Mesylate], the cell viability is 1.07.

As for `C/C=C1/[C@H](O[C@@H]2O[C@H](CO)[C@@H](O)[C@H](O)[C@H]2O)OC=C(C(=O)OC)[C@H]1CC(=O)OCCc1ccc(O)c(O)c1` [Oleuropein], the cell viability is 1.07.

Turning to `Cc1cc(=O)oc2cc(O)ccc12` [4-Methylumbelliferone], the cell viability was determined as 1.31.

Consider `COc1cccc(-c2ccc(NC(=O)C3=C(C(=O)O)CCC3)c(F)c2)c1` [Vidofludimus], for which the cell viability came to 1.04.

With `CC(C)C[C@H](NC(=O)[C@@H](COC(C)(C)C)NC(=O)[C@H](Cc1ccc(O)cc1)NC(=O)[C@H](CO)NC(=O)[C@H](Cc1c[nH]c2ccccc12)NC(=O)[C@H](Cc1cnc[nH]1)NC(=O)[C@@H]1CCC(=O)N1)C(=O)N[C@@H](CCCNC(=N)N)C(=O)N1CCC[C@H]1C(=O)NNC(N)=O` [Goserelin acetate], the cell viability was 1.07.

For `CC(COc1ccccc1)N(CCCl)Cc1ccccc1` (stereo not given) [Phenoxybenzamine hydrochloride], the cell viability was 1.

In the case of `Nc1ncn([C@@H]2O[C@H](CO)[C@@H](O)[C@H]2O)c(=O)n1` [5-Azacytidine], the cell viability amounted to 0.878.

Regarding `COc1ccc(CN(CCN(C)C)c2ccccn2)cc1` [Pyrilamine maleate], the cell viability is 1.05.

Turning to `CC(=O)Nc1cccc2c1c(Sc1ccc(Cl)cc1)c(C)n2CC(=O)O`, the cell viability came out at 1.1.

These data come from the supplement of paper PMC10600219.
